The source of these data is PubChem BioAssay AID1159614 (National Center for Advancing Translational Sciences (NCATS), 2016).

About 65 (0.1%) of roughly 45,000 compounds were called active. Calls come from the whole dose curve; as a rule, active = well fitted activation curve with a large enough effect; inconclusive = small, poorly fitted or top-dose-only effect; inactive = no such curve, though single readings can be large or run the other way. Some of the results follow.

The target of this experiment is Galactocerebrosidase (Homo sapiens) (UniProt P54803). The experiment can be described thus: A Novel Cell-Based Assay to Identify Small Molecules for B -Galactocerebrosidase. Note: 0% is about no effect; nearly all actives have a fitted effect of over 65% in size. The following applies: 145M-Twi-hGALC-G270D cells (Twitcher mouse brain line with human GALC G270D), HMU-beta-Gal fluorescence, 48 h; series mostly up to 57.5 µM; activation: at the top concentration. From the text: Lysosomal storage diseases (LSDs) are caused by genetic mutations in genes encoding proteins important for normal lysosomal function. Globoid cell leukodystrophy (GLD), mostly known as Krabbe disease, is a prototype of the neurological LSDs caused by deficiency of beta-galactocerebrosidase (GALC). In brain specimens of GLD patients, psychosine levels are substantially elevated. At elevated concentrations, psychosine becomes cytotoxic to neuronal cells, particularly to oligodendrocytes (OLG), neural cells responsible for myelin formation. Therefore, the biochemical disturbances in GLD are manifested by different degrees of brain demyelination resulting in a broad spectrum of neurological manifestations. Most of the FDA-approved therapies are based on enzyme replacement therapeutic (ERT) agents, which treat non-neurological symptoms of Gaucher disease, Fabry disease, few mucopolysaccharidoses and Pompe disease. Unfortunately, in GLD, a primarily neurological LSD, ERT agents, as large molecular weight molecules unable to cross the blood-brain barrier, which makes this an inefficacious therapeutic approach. In GLD, increasing the residual GALC activity just above the critical threshold (~10% of wild type enzymatic activity), the cytotoxic levels of psychosine will be reduced, avoiding the OLGs apoptosis and the subsequent demyelination process. This will translate in disease stabilization and amelioration of GLD patient symptoms.
Sequence of UniProt P54803 (P54803 whole entry, looked up): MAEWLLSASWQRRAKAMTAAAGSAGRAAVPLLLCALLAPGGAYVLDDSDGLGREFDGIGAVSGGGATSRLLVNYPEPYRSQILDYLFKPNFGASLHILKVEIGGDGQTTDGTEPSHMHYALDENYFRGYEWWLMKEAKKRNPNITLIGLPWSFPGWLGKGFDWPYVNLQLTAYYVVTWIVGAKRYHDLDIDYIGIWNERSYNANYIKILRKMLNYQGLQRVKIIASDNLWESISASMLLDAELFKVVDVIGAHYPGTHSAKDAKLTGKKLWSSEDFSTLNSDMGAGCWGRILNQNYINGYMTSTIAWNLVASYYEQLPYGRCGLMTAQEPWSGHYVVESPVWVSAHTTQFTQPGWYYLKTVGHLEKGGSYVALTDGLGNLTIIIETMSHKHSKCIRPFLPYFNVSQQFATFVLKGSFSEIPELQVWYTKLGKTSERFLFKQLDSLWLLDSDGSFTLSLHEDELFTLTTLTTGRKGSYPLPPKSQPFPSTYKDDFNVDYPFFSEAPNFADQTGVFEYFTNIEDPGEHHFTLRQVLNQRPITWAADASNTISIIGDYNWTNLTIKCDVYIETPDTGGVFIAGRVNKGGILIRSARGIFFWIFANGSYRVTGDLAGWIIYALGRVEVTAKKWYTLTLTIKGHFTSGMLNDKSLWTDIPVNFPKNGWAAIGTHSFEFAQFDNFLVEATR
A cell-based assay in 1,536-well plate format was developed to implement a quantitative high-throughput screening (qHTS) assay using GLD-disease relevant cells to identify small molecules that produce enhancements of the residual enzymatic activity levels of mutants GALC found and prevalent in GLD patients. Compounds that are active may therefore have some therapeutic application for GLD. After the treatment of live cells for a determined period, using a fluorescent GALC specific substrate, the mutant residual GALC activity is measured. This cell-based qTHS assay was used to screen part of the MLPCN library for small molecule able to increase the mutant GALC enzymatic activity. In this assay, increased fluorescent signal corresponds to enhanced levels of mutant GALC residual enzymatic activity. Activation is the desired outcome for this assay.
NIH Chemical Genomics Center [NCGC]
NIH Molecular Libraries Probe Centers Network [MLPCN]
Assay Submitter (PI): Gustavo Maegawa MD,PhD, University of Florida, Gainesville, FL
2)#Two cell lines were established for the assay: 145M-Twi-hGALC-G270D (brain-derived Twitcher cell line stably expressing human GALC-G270D) and 145M-Twi-hGALC-WT (same 145M-Twi stably expressing human GALC wild type). The Twitcher is the murine C57B/6 model for GLD with naturally occurring homozygous nonsense GALC mutation. The 145M-Twi cell line was established at Maegawa lab (Ribbens J et al 2014).
a.#Media: DMEM/F12 (1:1) with 10% fetal bovine-serum (FBS) with penicillin/streptomycin (PS-1X - 100 I.U./mL of penicillin+100 ug/mL of streptomycin).
b.#The 6-Hexadecanoylamino-4-methylumbelliferyl-b-D-galactoside (HMU-B-gal) substrate was prepared as per Wiederschain et al 1992. Using 20-mL borosilicate tubes, 2.20 mg of HMU-b-Gal was added in each tube to prepare substrate-film with a final air-nitrogen stream evaporation to remove all diluent solvents.
c.#The HMUb-Gal substrate buffer consists of 0.2 M Na2HPO4 (sodium phosphate dibasic)/ 0.1 M Citric Acid with the pH adjusted to 5.2 using HCl. Sodium Azide at 0.02% and Sodium Taurocholate (NaTC) at 1 mg/mL were added to this substrate buffer.
d.#The HMU-b-Gal stopping buffer consist of 0.5 M NaHCO3 (sodium bicarbonate) /0.5 M Na2CO3 (sodium carbonate). […] Triton X-100 at 0.25% was added.
4)#Preparation of HMU-b-Gal substrate tubes
Adding 18.6 mL of the HMUb-Gal substrate buffer to each 20-mL tube (2.20 mg of HMU-b-Gal) will reach a concentration of 0.2 mM. Vortex well the tube until the solution is fully homogenized (clear cloudy solution). […]
In the case of `O=C(CCS(=O)(=O)c1cc2c3c(c1)CCN3C(=O)CC2)NCc1ccc(F)cc1`, the “activation” value is inactive: -0.983%.

On to `CC(C)c1ccc(NC(=O)C2CCCN(S(=O)(=O)c3cccc4nonc34)C2)cc1` (configuration not stated), for which the “activation” value is inactive: -10.5%.

In the case of `O=C(Nc1noc2ccccc12)c1cccc(F)c1`, the “activation” value is inactive: -10.3%.

As to `CCOC(=O)c1c(S(=O)(=O)N2CCCC(C(=O)Nc3ccc(C)cc3C)C2)c(C)n(CC)c1C` (configuration not stated), the “activation” value is inactive: -17.9%.

Regarding `COC(=O)c1ccc(C2c3c(oc4cc(C)c(C)cc4c3=O)C(=O)N2c2ccccn2)cc1` (configuration not stated), the “activation” value is inactive: -18.9%.

In the case of `O=c1c2ccccc2n2c(-c3ccc(F)c(F)c3)nnc2n1CCc1ccccc1`, the “activation” value was inactive: -19%.

In the case of `Cc1cc(C)c(NC(=O)CSc2nnc3[nH]c(=O)cc(C)n23)c(C)c1`, the “activation” value is inactive: -6.86%.

As to `CCC(=O)Nc1ccc2nc(SCC(=O)N3CCc4ccccc43)sc2c1`, the “activation” value was inactive: 2.62%.

On to `CCOC(=O)c1ccccc1NC1(c2ccc(OC)cc2)C(=O)c2ccccc2C1=O`, for which the “activation” value was inactive: -16.8%.

In the case of `Cc1ccc(NC(=O)c2sc3nc(-c4ccc(F)cc4)cn3c2C)c(C)c1`, the “activation” value is inactive: -12.4%.

On to `COc1ccc(CCC(=O)NC2CC(=O)N(c3ccc(C)c(C)c3)C2)cc1` (configuration not stated), for which the “activation” value was inactive: -11.2%.

For the compound `CCCCNC(=O)c1ccc2c(=O)n(-c3ccccc3)c(=O)[nH]c2c1`, the “activation” value is inactive: -5.2%.

For `Cc1ccc(CNC(=O)c2ccc(-c3nc(CN4CCc5ccccc54)c(C)o3)cc2)cc1`, the “activation” value was inactive: -30.2%.

Consider `O=C(NCc1ccc(Cl)cc1)C(=O)NCC(c1ccco1)S(=O)(=O)c1cccs1` (configuration not stated), for which the “activation” value is inactive: -5.3%.

For `Cc1cc(C)c(NC(=O)Cn2c(=O)n(CCC(=O)NCc3ccc4c(c3)OCO4)c(=O)c3ccccc32)c(C)c1`, the “activation” value was inactive: 7.93%.

`CCOc1ccc(S(=O)(=O)Nc2ccc3c(c2)c(C(C)=O)c(C)n3S(=O)(=O)c2ccc(OCC)cc2)cc1`: the “activation” value is inactive: -33.5%.

Regarding `CCOC(=O)C1CCN(C(=O)CSc2c3c(nc4ccc(Cl)cc24)CCCC3)CC1`, the “activation” value was inactive: -41.6%.

Regarding `CC(=O)Nc1ccc(C(=O)CSc2nnc3cc(C)c4ccccc4n23)cc1`, the “activation” value is inactive: -18%.

For the compound `COc1cccc(NC(CNS(=O)(=O)c2ccc(C)cc2)c2ccccc2)c1` (configuration not stated), the “activation” value was inactive: -7.73%.

Turning to `CCN1C(=O)c2ccccc2Sc2ccc(NC(=O)c3ccc(C)c(F)c3)cc21`, the “activation” value is inactive: -9.48%.

As to `O=C(Cn1nnc2sc3c(c2c1=O)CCCC3)Nc1ccc(F)c(Cl)c1`, the “activation” value was inactive: -7.53%.

As for `CCc1c(C)nc2nncn2c1Nc1ccc(C)c(F)c1`, the “activation” value was inactive: -11.3%.

As to `COc1ccc(C2NC(=O)NC(C)=C2C(=O)Nc2cc(C)cc(C)c2)c(OC)c1` (configuration not stated), the “activation” value was inactive: -12.6%.

For `Cc1ccccc1CNC(=O)CCCn1nc(C)c2sc3ccccc3c2c1=O`, the “activation” value is inactive: -0.363%.

As for `Cc1cc(-c2ccc(C)c(S(=O)(=O)NCc3ccc(Cl)cc3)c2)on1`, the “activation” value is inactive: -16.5%.

For `CCCS(=O)(=O)NCCc1csc2nc(-c3ccc(OC)cc3)nn12`, the “activation” value is inactive: -8.21%.

Take `CN(Cc1ccccc1)c1ncnc2c1nc1n2CCCC1`: the “activation” value was inactive: -9.49%.

For `COc1ccccc1N(CC(=O)NCCSCc1ccc(Cl)cc1)S(C)(=O)=O`, the “activation” value was inactive: -1.34%.

On to `CCCCOc1cccc(C(=O)Nc2cccc3ccc(C)nc23)c1`, for which the “activation” value was inactive: -18.4%.

As for `COc1cc(OC)cc(C(=O)Nc2ccc3nc(N4CCC(C)CC4)cc(C)c3c2)c1`, the “activation” value was inactive: -9.58%.

Take `COc1cccc(C(=O)Nc2nnc(S(=O)(=O)N3CCOCC3)s2)c1`: the “activation” value was inactive: -16.2%.

With `Cc1ccc(CS(=O)(=O)Cc2ccc(C(=O)NCCc3ccc(Cl)cc3)o2)cc1`, the “activation” value was inactive: 5.06%.

As to `COc1ccc(C2CC(=O)Nc3c2c(=O)nc2c(C)cccn32)cc1` (configuration not stated), the “activation” value was inactive: 1.31%.

For `Cc1ccc2oc(=O)n(CCNC(=O)Nc3ccccc3Cl)c2c1`, the “activation” value was inactive: -2.64%.

Take `O=S(=O)(O)NC1CCCCC1`: the “activation” value was inactive: -14.2%.

As to `CCOC(=O)c1c(C)[nH]c(C)c1S(=O)(=O)N1CCC(C(=O)Nc2ccccn2)CC1`, the “activation” value was inactive: 3.91%.

For the compound `Cc1ccc2c(CC(=O)Nc3cc(C(F)(F)F)ccc3Cl)coc2c1C`, the “activation” value was inactive: -20.9%.

For the compound `Cc1cc(C)c2c(=O)cc(C(=O)Nc3ccccc3Cl)oc2c1`, the “activation” value was inactive: -14.4%.

As for `CCC12CN3CC(CC)(CN(C1)C3c1ccc(OCc3ccccc3)cc1)C2=O` (configuration not stated), the “activation” value is inactive: -12.9%.

In the case of `CCc1ccc(-c2nc3c(c(SCc4ccc(F)cc4)n2)Cc2c(CO)cnc(C)c2O3)cc1`, the “activation” value was inactive: 1.74%.

Consider `O=c1oc2ccc(Br)cc2cc1-c1nc(-c2ccccc2)no1`, for which the “activation” value is inactive: -5.55%.

Regarding `CCC(C)NC(=O)C1CCC(CNS(=O)(=O)c2cccc3nsnc23)CC1` (configuration not stated), the “activation” value is inactive: -11.7%.

For the compound `CCS(=O)(=O)N1CC(=O)N(c2ccc(C)c(C)c2)C(C)(C(=O)NC2CCCCC2)C1` (configuration not stated), the “activation” value is inactive: -4.07%.

Consider `COc1ccc(C(=O)c2oc3ccccc3c2NC(=O)COc2c(C)cc(C)cc2C)cc1`, for which the “activation” value was inactive: -27.2%.

For `Cc1cccc(NC(=O)CSc2nc3c(oc4ccccc43)c(=O)n2C(C)C)c1`, the “activation” value is inactive: -7.11%.

Consider `COc1ccc(N2CCN(C(c3ccccc3)c3nnc(-c4ccccc4Cl)o3)CC2)cc1` (configuration not stated), for which the “activation” value was inactive: -20.2%.

`COCCNC(=O)CCCn1c(SCC(=O)Nc2cccc(C)c2)nc2c(sc3ccccc32)c1=O`: the “activation” value was inactive: -14.4%.

For the compound `COc1cccc(CNC(=O)Cn2ncc3c4ccccc4n(C)c3c2=O)c1`, the “activation” value was inactive: -7.51%.

In the case of `CC1=C(C(=O)NCCc2ccc(Cl)cc2)C2(CCCCC2)OC1=O`, the “activation” value is inactive: -12.8%.

As to `CCOc1ccc(N2CC(c3nc4ccccc4n3CC(C)C)CC2=O)cc1` (configuration not stated), the “activation” value is inactive: -13.1%.

`COc1cccc(CNC(=O)c2c(O)nc3ccccn3c2=O)c1`: the “activation” value was inactive: -3.5%.

With `COc1cc(NC(=O)CCNS(=O)(=O)c2ccc3c(c2)CCN3C(=O)C2CC2)cc(OC)c1`, the “activation” value was inactive: -6.98%.

As to `CC(C)NC[C@@H](O)COc1cccc2ccccc12`, the “activation” value was inactive: -11.7%.

For `Cc1ccc(C)c(N2CCN(C(=O)c3ccc4c(Cl)c5c(nc4c3)CCCC5)CC2)c1`, the “activation” value is inactive: -9.82%.

With `COc1cc(-c2noc(-c3ccc(NCCc4ccccc4)c([N+](=O)[O-])c3)n2)cc(OC)c1OC`, the “activation” value was inactive: -14%.

As for `COc1cccc(-c2nc(SCc3cc(=O)c4cc(Cl)ccc4[nH]3)n[nH]2)c1`, the “activation” value was inactive: -7.18%.

`O=C(NCCc1ccc(Cl)cc1)c1ccc2nc(Cc3ccccc3)oc2c1`: the “activation” value is inactive: -8.12%.

With `Cc1cc(C)c(NC(=O)CSc2nc(=O)n(Cc3ccco3)c3c2CCC3)c(C)c1`, the “activation” value is inactive: -8.48%.

As for `CC(C)Cn1c(=O)c2sccc2n2c(CCCC(=O)Nc3ccc(Cl)cc3)nnc12`, the “activation” value is inactive: -11.5%.

For the compound `CS(=O)(=O)c1ncc(N(Cc2ccccc2)Cc2ccco2)c(C(=O)Nc2cccc(C(F)(F)F)c2)n1`, the “activation” value was inactive: -7.18%.

For `O=C(Cc1ccc(Cl)cc1)Nc1ccc2oc(-c3ccccc3)nc2c1`, the “activation” value is inactive: -8.33%.

For `CCN(CC)C(=O)c1sc2c(c1C)c(=O)n(-c1ccc(C)c(C)c1)c(=O)n2CC(=O)Nc1ccc(F)cc1`, the “activation” value was inactive: -8.23%.
